Test results from PubChem BioAssay AID504333 (National Center for Advancing Translational Sciences (NCATS), 2011).
Out of some 360,000 compounds screened, about 16,000 (4.4%) were called active. The shares of active, inactive and inconclusive entries below differ from those in the screen. The call rests on the fitted dose curve; in most records, active means well fitted inhibition curve with a large enough effect; inconclusive means small, poorly fitted or top-dose-only effect; inactive means no such curve, though single readings can be large or run the other way. A potency beside an inconclusive call is a rough fit, not a confirmed value.

Each compound was assayed against Bromodomain adjacent to zinc finger domain protein 2B (Homo sapiens) (UniProt Q9UIF8) (assay: qHTS Assay for Inhibitors of BAZ2B). Details: AlphaScreen BAZ2B-H3K14Ac peptide displacement; series mostly up to 114 µM.
Chain of UniProt Q9UIF8 (Q9UIF8 whole entry, looked up, the tested form may be a part): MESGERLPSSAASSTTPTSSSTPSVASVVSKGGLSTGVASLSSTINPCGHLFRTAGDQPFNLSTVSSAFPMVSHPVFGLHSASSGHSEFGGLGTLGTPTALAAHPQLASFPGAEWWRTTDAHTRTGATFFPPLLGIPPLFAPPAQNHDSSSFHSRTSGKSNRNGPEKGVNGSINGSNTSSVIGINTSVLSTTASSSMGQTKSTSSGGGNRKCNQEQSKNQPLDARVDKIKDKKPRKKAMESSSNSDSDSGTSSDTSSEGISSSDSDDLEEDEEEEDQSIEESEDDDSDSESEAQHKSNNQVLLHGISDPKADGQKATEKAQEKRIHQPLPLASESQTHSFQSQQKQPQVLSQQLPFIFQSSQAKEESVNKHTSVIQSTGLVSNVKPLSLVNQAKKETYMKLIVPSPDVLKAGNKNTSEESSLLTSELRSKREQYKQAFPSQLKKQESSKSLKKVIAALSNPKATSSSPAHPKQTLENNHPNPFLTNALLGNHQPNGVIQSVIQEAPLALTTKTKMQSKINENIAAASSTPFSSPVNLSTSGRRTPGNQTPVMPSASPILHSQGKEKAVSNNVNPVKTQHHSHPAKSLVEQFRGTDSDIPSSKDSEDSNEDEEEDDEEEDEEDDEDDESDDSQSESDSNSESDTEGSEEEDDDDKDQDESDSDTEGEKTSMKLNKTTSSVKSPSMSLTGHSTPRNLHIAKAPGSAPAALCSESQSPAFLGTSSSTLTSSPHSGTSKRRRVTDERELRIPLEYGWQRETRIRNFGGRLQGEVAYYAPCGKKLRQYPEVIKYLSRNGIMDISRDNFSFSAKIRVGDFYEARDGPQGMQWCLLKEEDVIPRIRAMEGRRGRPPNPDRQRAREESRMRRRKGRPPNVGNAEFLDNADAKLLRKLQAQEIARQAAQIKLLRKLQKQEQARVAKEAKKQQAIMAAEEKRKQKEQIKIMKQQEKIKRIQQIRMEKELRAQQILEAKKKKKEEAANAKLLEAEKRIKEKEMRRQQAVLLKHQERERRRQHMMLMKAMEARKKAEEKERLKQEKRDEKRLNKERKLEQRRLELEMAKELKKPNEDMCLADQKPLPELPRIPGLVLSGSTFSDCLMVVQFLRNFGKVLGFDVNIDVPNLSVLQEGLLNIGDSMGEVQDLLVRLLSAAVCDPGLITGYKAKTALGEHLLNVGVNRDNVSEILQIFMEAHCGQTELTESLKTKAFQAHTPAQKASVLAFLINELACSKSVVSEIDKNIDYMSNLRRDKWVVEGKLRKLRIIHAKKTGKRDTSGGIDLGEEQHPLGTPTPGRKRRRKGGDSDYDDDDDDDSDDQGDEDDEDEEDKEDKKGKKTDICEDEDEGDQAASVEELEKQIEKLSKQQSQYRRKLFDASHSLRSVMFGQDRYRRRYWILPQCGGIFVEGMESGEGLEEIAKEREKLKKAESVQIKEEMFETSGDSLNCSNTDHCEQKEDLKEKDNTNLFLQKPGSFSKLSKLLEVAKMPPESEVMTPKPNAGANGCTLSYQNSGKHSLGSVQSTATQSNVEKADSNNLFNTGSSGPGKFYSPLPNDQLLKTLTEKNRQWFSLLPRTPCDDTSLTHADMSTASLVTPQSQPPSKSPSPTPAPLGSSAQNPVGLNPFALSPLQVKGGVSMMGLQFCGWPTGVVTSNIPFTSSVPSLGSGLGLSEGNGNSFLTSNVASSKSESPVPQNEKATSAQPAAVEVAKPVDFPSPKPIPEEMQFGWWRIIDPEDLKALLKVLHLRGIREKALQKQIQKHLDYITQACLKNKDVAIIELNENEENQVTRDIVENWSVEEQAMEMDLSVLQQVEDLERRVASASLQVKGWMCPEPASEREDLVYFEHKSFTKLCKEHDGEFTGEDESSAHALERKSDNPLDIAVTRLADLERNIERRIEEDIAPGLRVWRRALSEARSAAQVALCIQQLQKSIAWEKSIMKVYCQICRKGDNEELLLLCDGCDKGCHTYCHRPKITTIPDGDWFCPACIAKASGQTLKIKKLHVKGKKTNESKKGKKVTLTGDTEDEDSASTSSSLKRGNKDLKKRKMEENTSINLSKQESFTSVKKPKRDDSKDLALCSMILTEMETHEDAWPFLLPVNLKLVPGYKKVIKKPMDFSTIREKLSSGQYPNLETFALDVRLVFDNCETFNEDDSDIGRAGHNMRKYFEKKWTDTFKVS
Procedure, shortened: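 AlphaScreen displacement of biotin-H3(5-23)K14Ac peptide (50 nM final) from BAZ2B (50 nM final) in PBS pH 7.4, 0.01% Tween-20; complex preformed 30 min RT, then compounds (top 110 uM) 30 min RT, beads 20 min dark.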
Further: nearly all actives have a fitted effect of over 60% in size.
Potency means the concentration at half of the fitted maximal effect; tags describe the fitted curve by direction and shape.

Row | SMILES | Potency
1 | O=C(CN1C(=O)NC2(CCCC2)C1=O)OCC(=O)c1cccc(Cl)c1 | inactive
2 | COc1ccc(OC)c(CNc2ncc(-c3cccc([N+](=O)[O-])c3)n2C)c1 | active: 50.1 µM
3 | COc1ccc(N2CCN(C(=O)c3cccn3-c3nnc(N4CCCC4)s3)CC2)cc1 | inconclusive: 70.8 µM [inhibitor, single point]
4 | O=C(CSc1n[nH]c(-c2ccccc2Cl)n1)NCCc1ccccc1 | inactive
5 | Oc1c(CN2CCCC(C(F)(F)F)C2)cc(Cl)c2ccccc12 (configuration not stated) | inactive
6 | N#Cc1cccc2cnccc12 | inconclusive: 100 µM [inhibitor, single point]
7 | CCCNC(=O)Nc1ccccc1SC | inactive
8 | Cc1cc(C)c(NC(=O)Cn2c(=O)n(CCC(=O)N3CCc4ccccc4C3)c(=O)c3ccccc32)c(C)c1 | inconclusive: 89.1 µM [inhibitor, single point]
9 | COc1ccc(S(=O)(=O)Nc2ccc(S(=O)(=O)N3CCCC3)cc2)cc1 | inconclusive: 100 µM [inhibitor, single point]
10 | COC(=O)c1ccc(NC(=O)C2CC2)o1 | inactive
11 | Cc1cc(C(c2ccc(C)o2)c2ccc(C)o2)c(O)c([N+](=O)[O-])c1 | active: 44.7 µM
12 | Cn1nnnc1SCCCNCc1ccccc1OCc1ccc(Cl)cc1 | inconclusive: 89.1 µM [inhibitor, single point]
13 | CC(C)(C)c1ccc(C2CC2C(=O)N/N=C\c2ccc[nH]2)cc1 (configuration not stated) | inconclusive: 50.1 µM [inhibitor, partial curve]
14 | NS(=O)(=O)c1cc2c(cc1Cl)NC(CSCc1ccccc1)=NS2(=O)=O | active: 89.1 µM
15 | Cc1csc(NC(=O)c2cccn2C)n1 | inconclusive: 70.8 µM [inhibitor, single point]
16 | CCN(c1ccc(NC(=O)COC(=O)/C=C/c2cccs2)cc1)C(C)C | active: 17.8 µM
17 | O=C(c1ccc(CS(=O)(=O)c2ccccc2)o1)N1CCN(c2ncccn2)CC1 | inconclusive: 28.2 µM [inhibitor, single point]
18 | Cc1ccc(N2C(=O)CCSC23C(=O)N(Cc2ccccc2)c2ccccc23)cc1 (configuration not stated) | inactive
19 | CCOC(=O)c1[nH]c2cc(OC)c(OC)cc2c1NC(=O)C(C)N1CCN(Cc2ccccc2)CC1 (configuration not stated) | inconclusive: 79.4 µM [inhibitor, single point]
20 | Cc1ccc(NC(=O)Nc2nnc(N3CCCC3)s2)cc1C | inconclusive: 79.4 µM [inhibitor, single point]
21 | O=[N+]([O-])c1ccc(Cl)cc1CN1CCCCCC1 | inconclusive: 50.1 µM [inhibitor, partial curve]
22 | COCCC1CCCCN1C(=O)c1cc(COc2ccc(-n3cncn3)cc2)on1 (configuration not stated) | inactive
23 | CN(C)NC1CCS(=O)(=O)C1 (configuration not stated) | inconclusive: 79.4 µM [inhibitor, single point]
24 | O=C(COC(=O)CCS(=O)(=O)c1ccccc1)Nc1ccc(N2CCCCC2)cc1 | inconclusive: 89.1 µM [inhibitor, single point]

Row | SMILES | Potency
25 | CCOC(=O)C1CCN(c2cc3c(cc2NC(=O)c2ccc(F)cc2)n(C)c(=O)n3C)CC1 | inconclusive: 89.1 µM [inhibitor, single point]
26 | COc1ccccc1CNc1nc(C)c(C(C)=O)s1 | inconclusive: 79.4 µM [inhibitor, single point]
27 | COc1ccc(NC(=O)C2=CCN(S(=O)(=O)c3ccccc3)CC2)cc1OC | inconclusive: 79.4 µM [inhibitor, single point]
28 | CCN(CC)CCNC(=O)C(=O)Nc1c2c(nn1-c1ccc(F)cc1)CSC2 | inactive
29 | Cc1cc2nc(SC(C)C(=O)O)[nH]c2cc1C (configuration not stated) | inconclusive: 79.4 µM [inhibitor, partial curve]
30 | NC(=O)c1sc(-c2ccsc2)cc1NS(=O)(=O)c1ccc(C(F)(F)F)cc1 | inconclusive: 79.4 µM [inhibitor, partial curve]
31 | CN(C)c1ccc(CN(C(=O)C2COc3ccccc3O2)C2CCS(=O)(=O)C2)cc1 (configuration not stated) | active: 56.2 µM
32 | O=S(=O)(Nc1nc(-c2ccccc2)cs1)c1cc(Cl)ccc1Cl | inconclusive: 35.5 µM [inhibitor, partial curve]
33 | Cc1ccc(S(=O)(=O)Nc2ccccc2)cc1C(=O)N1CCCC1 | inactive
34 | Cn1c(=O)n(C)c2cc(S(=O)(=O)NCCc3ccccc3)ccc21 | inconclusive: 89.1 µM [inhibitor, single point]
35 | Nc1nc(SCC(=O)Nc2cccc(S(=O)(=O)N3CCCCCC3)c2)n[nH]1 | inconclusive: 89.1 µM [inhibitor, single point]
36 | Cc1ccccc1N1C(=O)c2ccccc2C1O (configuration not stated) | inactive
37 | COc1cccc2cc(C(=O)Nc3ccc(CC(=O)O)cc3)c(=O)oc12 | inconclusive: 89.1 µM [inhibitor, single point]
38 | CCc1ccc(C(=O)CN2CCSC2=N)cc1 | inconclusive: 50.1 µM [inhibitor, partial curve]
39 | COc1ccc(CNC(=O)C2Cc3cc(S(=O)(=O)N4CCCC4)ccc3N2C(C)=O)c(OC)c1 (configuration not stated) | inconclusive: 79.4 µM [inhibitor, partial curve]
40 | NCCSC1CC(=O)N(c2ccc(Cl)c(Cl)c2)C1=O (configuration not stated) | inconclusive: 89.1 µM [inhibitor, single point]
41 | COC(=O)Nc1sc2c(c1C(=O)NCc1ccco1)CCCC2 | inconclusive: 89.1 µM [inhibitor, single point]
42 | COc1cc(C2C3=C(CCCC3=O)Nc3[nH]n(-c4ccccc4)c(=O)c32)ccc1OC(C)=O (configuration not stated) | inconclusive: 79.4 µM [inhibitor, single point]
43 | COc1ccccc1-n1cc(-c2ccccc2)[nH]c1=S | inconclusive: 70.8 µM [inhibitor, single point]
44 | O=C(Nc1ccc(S(=O)(=O)Nc2ncccn2)cc1)c1ccc(N2CCCC2=O)cc1 | inactive
45 | CC(=O)c1cccc(NC(=O)CN2C(=O)CCc3cc(S(=O)(=O)N4CCCCC4)ccc32)c1 | inactive
46 | O=C(Nc1nc2n(n1)C(c1ccccc1)C=C(c1ccccc1)N2)c1ccco1 (configuration not stated) | active: 25.1 µM
47 | O=C(O)COCC(=O)N1CCc2c([nH]c3ccccc23)C1C(F)(F)F (configuration not stated) | inconclusive: 89.1 µM [inhibitor, single point]
48 | N=C1/C(=C\c2ccc(OC(=O)c3ccccc3)cc2)C(=O)N=C2SC(N3CCOCC3)=NN12 | inconclusive: 50.1 µM [inhibitor, partial curve]

Row | SMILES | Potency
49 | Cc1cccc(C)c1OCC(=O)Nc1ccccc1N1CCCCC1 | inactive
50 | COc1ccc(CN2CCc3c(c(=O)n4ncc(C(=O)N5CCN(c6ccccc6F)CC5)c4n3C)C2)cc1 | inactive
51 | CCn1nnnc1SCC(=O)N(C)C1CCS(=O)(=O)C1 (configuration not stated) | inactive
52 | O=C(NCCc1ccccc1)c1ccc(OCCOc2ccccc2)cc1 | inconclusive: 100 µM [inhibitor, single point]
53 | O=S(=O)(NCc1ccco1)c1ccc(Cl)nc1 | inactive
54 | O=C1CC(c2ccccc2)Oc2cc(O)cc(O)c21 (configuration not stated) | inactive
55 | c1coc(-c2nc(-c3ccco3)c(-c3ccco3)nc2-c2ccco2)c1 | active: 28.2 µM
56 | Cc1ccc(CN2CCSc3ccc(C(=O)NC4CCN(Cc5ccccc5)CC4)cc32)cc1 | inconclusive: 3.55 µM [inhibitor, full curve, poor fit]
57 | Cc1[nH]nc(S(=O)CC(=O)O)c1[N+](=O)[O-] (configuration not stated) | inconclusive: 89.1 µM [inhibitor, single point]
58 | CCCCc1cc(=O)oc2cc(OCC(=O)NCCN3CCOCC3)ccc12 | inconclusive: 79.4 µM [inhibitor, partial curve]
59 | O=C(Nc1nccs1)c1ccc(-c2ccc(Cl)cc2)o1 | inconclusive: 79.4 µM [inhibitor, partial curve]
60 | CO/N=C/CC(=O)c1ccc([N+](=O)[O-])c(CS(=O)(=O)c2ccc(Cl)cc2)c1 | inconclusive: 39.8 µM [inhibitor, partial curve]
61 | COc1ccccc1NC(=O)N1CCCC1C(=O)NCc1ccccc1Cl (configuration not stated) | inconclusive: 89.1 µM [inhibitor, single point]
62 | O=C(NCc1cc(Br)cc(Br)c1OC(=O)c1ccccc1[N+](=O)[O-])c1ccccc1 | inactive
63 | Cc1ncc(CO)c2c1Oc1nc(-c3ccc(Cl)cc3)nc(SCC(=O)N3CCCCC3)c1C2 | inconclusive: 79.4 µM [inhibitor, single point]
64 | COc1ccc(OC)c(NC(=O)CS(=O)(=O)c2ccccc2)c1 | inconclusive: 89.1 µM [inhibitor, single point]
65 | O=C(O)/C=C\C(=O)Nc1ccccc1C#Cc1ccc(Br)cc1 | inconclusive: 89.1 µM [inhibitor, single point]
66 | O=C(Nc1ccc(Nc2ccccc2)cc1)c1cc([N+](=O)[O-])ccc1Cl | active: 39.8 µM
67 | NNc1nc2c(Cl)c(Cl)ccc2s1 | active: 50.1 µM
68 | COc1nc(NCc2ccco2)nc(N2CCC(C)CC2)n1 | inconclusive: 70.8 µM [inhibitor, single point]
69 | COCCN=C1Sc2nc3cc(C)c(C)cc3cc2CN1Cc1cccs1 | inactive
70 | c1ccc(C2[C@H]3CN(Cc4cccnc4)[C@H](c4ccccc4)C34CC2(c2cccnc2)C4)cc1 (some centres not stated) | inconclusive: 39.8 µM [inhibitor, partial curve]
71 | COCCCNC(=O)CCCOc1ccccc1 | inconclusive: 89.1 µM [inhibitor, single point]
72 | COc1ccc(C)cc1NC(=O)N1CCN(S(=O)(=O)c2ccc3c(ccn3C)c2)CC1 | inactive
